{
  "source": "paper PMC4336329",
  "about": "(PLoS ONE, 2015)",
  "note": "Screen size: about 310,000 compounds; about 2,200 (0.71%) showed an effect of 50% or more. Effects have a minus sign here. The list shows a part of the results.",
  "data": [
    {"biological_target": "human ether-à-go-go-related gene (hERG) potassium channel (human, UniProt Q12809)", "sequence (Q12809 whole entry, looked up)": "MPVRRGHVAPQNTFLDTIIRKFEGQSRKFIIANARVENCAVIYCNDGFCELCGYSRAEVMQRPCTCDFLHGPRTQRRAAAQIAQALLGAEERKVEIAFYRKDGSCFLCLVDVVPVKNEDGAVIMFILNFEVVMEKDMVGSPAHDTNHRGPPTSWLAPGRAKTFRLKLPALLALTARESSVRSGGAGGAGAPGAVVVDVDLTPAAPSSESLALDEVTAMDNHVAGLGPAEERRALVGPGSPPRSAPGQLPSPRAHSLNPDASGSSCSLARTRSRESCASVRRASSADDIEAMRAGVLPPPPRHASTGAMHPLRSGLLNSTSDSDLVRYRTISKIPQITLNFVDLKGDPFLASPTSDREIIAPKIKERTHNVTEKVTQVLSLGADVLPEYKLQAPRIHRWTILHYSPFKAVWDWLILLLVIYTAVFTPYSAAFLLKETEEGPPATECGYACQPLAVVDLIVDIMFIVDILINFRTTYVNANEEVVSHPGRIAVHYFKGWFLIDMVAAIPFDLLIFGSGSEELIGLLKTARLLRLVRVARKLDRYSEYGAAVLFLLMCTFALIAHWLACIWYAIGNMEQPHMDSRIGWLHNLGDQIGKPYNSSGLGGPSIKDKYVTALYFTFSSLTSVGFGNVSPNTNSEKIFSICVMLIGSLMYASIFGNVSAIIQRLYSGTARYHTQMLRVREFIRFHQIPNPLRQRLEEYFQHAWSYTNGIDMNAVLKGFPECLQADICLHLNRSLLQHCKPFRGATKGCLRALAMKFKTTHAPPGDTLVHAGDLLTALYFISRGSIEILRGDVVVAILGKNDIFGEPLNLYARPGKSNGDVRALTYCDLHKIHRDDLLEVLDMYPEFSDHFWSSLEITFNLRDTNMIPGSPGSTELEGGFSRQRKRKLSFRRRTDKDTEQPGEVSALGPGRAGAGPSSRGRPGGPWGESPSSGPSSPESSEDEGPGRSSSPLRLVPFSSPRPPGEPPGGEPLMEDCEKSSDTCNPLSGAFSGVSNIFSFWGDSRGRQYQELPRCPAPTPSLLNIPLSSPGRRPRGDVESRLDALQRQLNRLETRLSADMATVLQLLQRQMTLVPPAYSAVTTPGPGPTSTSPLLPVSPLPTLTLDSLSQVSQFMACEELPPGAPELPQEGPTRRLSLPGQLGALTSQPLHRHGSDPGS", "test": "primary screen, population patch clamp on CHO cells stably expressing hERG", "units": {"hERG current change (%, negative = inhibition) at 1uM": "%"}, "values": [
      {"smiles": "C=CCn1c(SCC(=O)c2[nH]c(C)c(C(=O)OC)c2C)nc2scc(-c3ccc(OC)c(OC)c3)c2c1=O", "hERG current change (%, negative = inhibition) at 1uM": 21.3},
      {"smiles": "COc1ccc(CNc2ccc3c(c2)ncn3C)cc1OC", "hERG current change (%, negative = inhibition) at 1uM": 15.6},
      {"smiles": "CC(=O)N(CCO)Cc1cc2cc(C)cc(C)c2[nH]c1=O", "hERG current change (%, negative = inhibition) at 1uM": 13.5},
      {"smiles": "CC(C)N(Cc1ccccc1)C(=O)C1CCCN(c2ncnc3c2nc2n3CCCCC2)C1", "note": "(centres unmarked)", "hERG current change (%, negative = inhibition) at 1uM": 7.91},
      {"smiles": "Cc1nn(CC(=O)Nc2nnc(C(C)C)s2)c(=O)c2ccccc12", "hERG current change (%, negative = inhibition) at 1uM": 23.1},
      {"smiles": "COc1cc(C2c3c(n[nH]c3C)C(=O)N2c2ccc(Br)cc2)ccc1O", "note": "(centres unmarked)", "hERG current change (%, negative = inhibition) at 1uM": 8.59},
      {"smiles": "COC(=O)CC1(C(=O)OC)Oc2ccc(Br)cc2C(=O)N1c1cccc(Cl)c1Cl", "note": "(centres unmarked)", "hERG current change (%, negative = inhibition) at 1uM": 14.6},
      {"smiles": "COc1ccc(/C(O)=C2/C(=O)C(=O)N(CCN(C)C)C2c2cccnc2)cc1C", "note": "(centres unmarked)", "hERG current change (%, negative = inhibition) at 1uM": 4.02},
      {"smiles": "CN(CCOc1ccccc1)C(=O)C1CCC(=O)N(CCCN2CCOCC2)C1", "note": "(centres unmarked)", "hERG current change (%, negative = inhibition) at 1uM": 10.4},
      {"smiles": "CCC(CC)C(=O)Nc1cccc(C(=O)Nc2ccc(OC)cc2[N+](=O)[O-])c1", "hERG current change (%, negative = inhibition) at 1uM": 7.15},
      {"smiles": "CCCCn1c(O)c(/C=N/N2CCCCC2c2cccnc2)c(=O)[nH]c1=S", "note": "(centres unmarked)", "hERG current change (%, negative = inhibition) at 1uM": -2.58},
      {"smiles": "Cc1cccc(NC(=O)C2CCN(S(=O)(=O)c3ccc4c(c3)C(C)(C)C(=O)N4C)CC2)c1C", "hERG current change (%, negative = inhibition) at 1uM": 15.3},
      {"smiles": "Cc1cccc(/C=N\\Nc2cn[nH]c(=O)c2Cl)c1", "hERG current change (%, negative = inhibition) at 1uM": 10.1},
      {"smiles": "CC1CCCCC12NC(=O)N(CC(=O)OCC(=O)c1ccc(OC(F)F)cc1OC(F)F)C2=O", "note": "(centres unmarked)", "hERG current change (%, negative = inhibition) at 1uM": 3.14},
      {"smiles": "CCN(CC)C(=O)CN(C#N)c1nc(OC)nc(N(C)C)n1", "hERG current change (%, negative = inhibition) at 1uM": 10.9},
      {"smiles": "O=C(Nc1cc(C(F)(F)F)ccc1N1CCOCC1)c1cccc(F)c1", "hERG current change (%, negative = inhibition) at 1uM": -12.1},
      {"smiles": "CC(=O)c1ccc(N2CCN(CC(=O)NCc3ccccc3)CC2)cc1", "hERG current change (%, negative = inhibition) at 1uM": -2.67},
      {"smiles": "CCOC(=O)C1CCCN(C(=O)C2CCN(S(=O)(=O)CC)CC2)C1", "note": "(centres unmarked)", "hERG current change (%, negative = inhibition) at 1uM": 10.2},
      {"smiles": "O=C(CSc1ccc(Cl)cc1)Nc1ccc(N2CCN(C(=O)c3ccc(Cl)cc3)CC2)cc1", "hERG current change (%, negative = inhibition) at 1uM": 6.01},
      {"smiles": "CC(=O)Nc1cccc(OCCCNC(=O)C2CCC2)c1", "hERG current change (%, negative = inhibition) at 1uM": 16.6},
      {"smiles": "CCOC(=O)C1=C(c2ccccc2)NC(SCC(=O)Nc2cccc(C)c2)=C(C#N)C1c1ccco1", "note": "(centres unmarked)", "hERG current change (%, negative = inhibition) at 1uM": -6.68},
      {"smiles": "O[C@@H]1CCCN2CCc3c([nH]c4ccccc34)[C@H]12", "hERG current change (%, negative = inhibition) at 1uM": 16.7},
      {"smiles": "CC(C)CCN1CCN(Cc2cccs2)CC1CCO", "note": "(centres unmarked)", "hERG current change (%, negative = inhibition) at 1uM": 2.15},
      {"smiles": "COc1ccc(CNC(=O)CCC(=O)Nc2cccnc2)cc1", "hERG current change (%, negative = inhibition) at 1uM": 16},
      {"smiles": "O=C(CCCn1c(=S)[nH]c2cc3c(cc2c1=O)OCO3)N1CCN(c2ccccc2)CC1", "hERG current change (%, negative = inhibition) at 1uM": 9.16},
      {"smiles": "CCn1ncc(/C=N\\NC(=O)Cc2ccc([N+](=O)[O-])cc2)c1C", "hERG current change (%, negative = inhibition) at 1uM": 2.33},
      {"smiles": "C/C(=N\\NC(=O)c1ccccc1O)C1C(=O)c2ccccc2C1=O", "hERG current change (%, negative = inhibition) at 1uM": -0.989},
      {"smiles": "O=C(NCc1ccc(F)cc1)C1CCN(S(=O)(=O)c2ccc(Br)s2)CC1", "hERG current change (%, negative = inhibition) at 1uM": -3.56},
      {"smiles": "Cc1ccccc1N1CCN(S(=O)(=O)CC23CCC(CC2=O)C3(C)C)CC1", "note": "(centres unmarked)", "hERG current change (%, negative = inhibition) at 1uM": 10.6},
      {"smiles": "O=S(=O)(NCc1ccc(Cl)cc1)NCc1ccccc1F", "hERG current change (%, negative = inhibition) at 1uM": 6.32},
      {"smiles": "CCCc1nnc(NC(=O)CCC(=O)NCc2ccccc2)s1", "hERG current change (%, negative = inhibition) at 1uM": 17.3},
      {"smiles": "COC(=O)c1ccc(/C=N/Nc2nc(-c3ccccc3)cs2)cc1", "hERG current change (%, negative = inhibition) at 1uM": 8.5},
      {"smiles": "Cc1cccc(C)c1NC(=O)CCCN1C(=O)C(c2ccccc2)Oc2cccnc21", "note": "(centres unmarked)", "hERG current change (%, negative = inhibition) at 1uM": 9.92},
      {"smiles": "O=C(NCCCN1CCOCC1)c1ccc(Cl)s1", "hERG current change (%, negative = inhibition) at 1uM": -6.78},
      {"smiles": "CC(C)CCn1c(NCCc2ccccc2)nc2c1c(=O)n(C)c(=O)n2C", "hERG current change (%, negative = inhibition) at 1uM": 8.2},
      {"smiles": "Cc1ccccc1CN1CCN(CC2CC2)CC1CCO", "note": "(centres unmarked)", "hERG current change (%, negative = inhibition) at 1uM": 7.55},
      {"smiles": "N#Cc1c(SCC(=O)Nc2nccs2)sc2c(O)cc(=O)[nH]c12", "hERG current change (%, negative = inhibition) at 1uM": 9.53},
      {"smiles": "CCc1nc2ccccc2c(=O)n1NC(=O)c1c(O)c2cccc3c2n(c1=O)CCC3", "hERG current change (%, negative = inhibition) at 1uM": 15.9},
      {"smiles": "O=P(Oc1ccccc1)(Oc1ccccc1)C(O)c1ccc(Cl)cc1", "note": "(centres unmarked)", "hERG current change (%, negative = inhibition) at 1uM": 7.7},
      {"smiles": "Cc1cc(S(=O)(=O)NCc2cccnc2)ccc1-n1cnnn1", "hERG current change (%, negative = inhibition) at 1uM": -10.8},
      {"smiles": "COc1ccc(NP(=O)(Oc2ccc(Cl)cc2)Oc2ccc(Cl)cc2)cc1OC", "hERG current change (%, negative = inhibition) at 1uM": -7.48},
      {"smiles": "CCOC(=O)c1cc(=O)[nH]c2ccccc12", "hERG current change (%, negative = inhibition) at 1uM": 7.68},
      {"smiles": "CC(=O)c1cccc(NC(=O)c2cc(-n3cnnc3)ccc2Cl)c1", "hERG current change (%, negative = inhibition) at 1uM": 4.24},
      {"smiles": "Cc1onc(-c2ccccc2Cl)c1C(=O)OCC(=O)Nc1cccc(S(=O)(=O)N2CCOCC2)c1", "hERG current change (%, negative = inhibition) at 1uM": 8.29},
      {"smiles": "Oc1ccc(/C=N/NP(=S)(c2ccccc2)c2ccccc2)c(O)c1O", "hERG current change (%, negative = inhibition) at 1uM": 5},
      {"smiles": "CCc1nnc(NC(=O)CSc2nnnn2C)s1", "hERG current change (%, negative = inhibition) at 1uM": 0.657},
      {"smiles": "O=C(NNC(=S)Nc1ccc(Br)cc1)c1ccccc1", "hERG current change (%, negative = inhibition) at 1uM": 12.2},
      {"smiles": "O=C(O)c1cccc(C(=O)c2cccc(C(=O)O)c2)c1", "hERG current change (%, negative = inhibition) at 1uM": 16.6},
      {"smiles": "CC1CCCCN1C(=O)CSc1nnc(Cc2ccccc2)n1C", "note": "(centres unmarked)", "hERG current change (%, negative = inhibition) at 1uM": 19.9},
      {"smiles": "O=C(NCCCN1CCCC1)c1cc(Sc2ccc(F)cc2)nc2ccccc12", "hERG current change (%, negative = inhibition) at 1uM": -9.42},
      {"smiles": "Cc1ccccc1NC(=O)C(c1ccccc1)C1CCCC1", "note": "(centres unmarked)", "hERG current change (%, negative = inhibition) at 1uM": 9.31},
      {"smiles": "COc1ccc(NC(=O)CN(C)C(=O)CN2C(=O)C3CCCCC3C2=O)cc1", "note": "(centres unmarked)", "hERG current change (%, negative = inhibition) at 1uM": 0.703},
      {"smiles": "CCc1nc(SCC(=O)Nc2nnc(CC)s2)c2c(=O)n(C)c(=O)n(C)c2n1", "hERG current change (%, negative = inhibition) at 1uM": 7.95},
      {"smiles": "CCOc1ccc2nc(NC(=O)CS(=O)(=O)c3ccccc3)sc2c1", "hERG current change (%, negative = inhibition) at 1uM": 11.1},
      {"smiles": "CC(C)[C@H](NC(=O)c1ccccc1)C(=O)OCC(=O)NCCC1=CCCCC1", "hERG current change (%, negative = inhibition) at 1uM": 15.6},
      {"smiles": "Cn1cc(S(=O)(=O)N2CCc3ccccc32)cc1C(=O)NC(C)(C)C", "hERG current change (%, negative = inhibition) at 1uM": 7.25}
    ]}
  ]
}
